In the supplement of paper PMC8728848:
Some of the results follow.

Legend:
Assay in all cases: glycan array binding signal (z-score within array); higher = stronger binding
Details in all cases: glycan notation: IUPAC condensed, linker removed
[1] = target: Neu5Ac(a2-6)Gal(b1-4)GlcNAc(b1-3)Gal(b1-4)GlcNAc(b1-3)GalNAc
Outline: (§1)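 Glycan array data were curated from 3228 arrays in the Consortium for Functional Glycomics database and kept only where the protein sequence was available. Glycan names were converted to IUPAC-condensed notation, and columns mapping to the same glycan were averaged. The binding signal is a within-array Z-score, averaged across arrays of the same protein sequence at different concentrations or buffers and across linkers. Negative Z-scores can be read as non-binding.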

[2] = target: Neu5Ac(a2-6)Gal(b1-4)GlcNAc(b1-3)Gal(b1-4)GlcNAc(b1-3)[Neu5Ac(a2-6)Gal(b1-4)GlcNAc(b1-3)Gal(b1-4)GlcNAc(b1-6)]GalNAc
Outline: as §1

[3] = target: Neu5Ac(a2-6)Gal(b1-4)GlcNAc(b1-3)Gal(b1-4)GlcNAc(b1-6)[Gal(b1-3)]GalNAc
Outline: as §1

[4] = target: Neu5Ac(a2-6)Gal(b1-4)GlcNAc(b1-3)Gal(b1-4)[Fuc(a1-3)]GlcNAc(b1-3)Gal(b1-4)[Fuc(a1-3)]GlcNAc
Outline: as §1

[5] = target: Neu5Ac(a2-6)Gal(b1-4)GlcNAc(b1-3)GalNAc
Outline: as §1

[6] = target: Neu5Ac(a2-6)Gal(b1-4)GlcNAc(b1-3)[Neu5Ac(a2-6)Gal(b1-4)GlcNAc(b1-6)]GalNAc
Outline: as §1

[7] = target: Neu5Ac(a2-6)Gal(b1-4)GlcNAc(b1-6)GalNAc
Outline: as §1

[8] = target: Neu5Ac(a2-6)Gal(b1-4)GlcNAc(b1-6)[Gal(b1-3)GlcNAc(b1-3)]Gal(b1-4)Glc
Outline: as §1

[9] = target: Neu5Ac(a2-6)Gal(b1-4)GlcNAc(b1-6)[Gal(b1-3)]GalNAc
Outline: as §1

[10] = target: Neu5Ac(a2-6)Gal(b1-4)GlcNAc6S
Outline: as §1

Neu5Ac(a2-6)GalNAc = target: Neu5Ac(a2-6)GalNAc
Outline: as §1

[11] = target: Neu5Ac(a2-6)GalNAc(b1-4)GlcNAc
Outline: as §1

[12] = target: Neu5Ac(a2-6)GalNAc(b1-4)GlcNAc6S
Outline: as §1

[13] = target: Neu5Ac(a2-6)GlcNAc(b1-4)GlcNAc
Outline: as §1

[14] = target: Neu5Ac(a2-6)GlcNAc(b1-4)GlcNAc(b1-4)GlcNAc
Outline: as §1

Neu5Ac(a2-8)Neu5Ac = target: Neu5Ac(a2-8)Neu5Ac
Outline: as §1

[15] = target: Neu5Ac(a2-8)Neu5Ac(a2-3)Gal(b1-3)GalNAc(b1-4)[Neu5Ac(a2-3)]Gal(b1-4)Glc
Outline: as §1

[16] = target: Neu5Ac(a2-8)Neu5Ac(a2-3)Gal(b1-3)GalNAc(b1-4)[Neu5Ac(a2-8)Neu5Ac(a2-3)]Gal(b1-4)Glc
Outline: as §1

[17] = target: Neu5Ac(a2-8)Neu5Ac(a2-3)Gal(b1-4)Glc
Outline: as §1

[18] = target: Neu5Ac(a2-8)Neu5Ac(a2-3)Gal(b1-4)GlcNAc
Outline: as §1

[19] = target: Neu5Ac(a2-8)Neu5Ac(a2-3)[Gal(b1-3)GalNAc(b1-4)]Gal(b1-4)Glc
Outline: as §1

[20] = target: Neu5Ac(a2-8)Neu5Ac(a2-3)[GalNAc(b1-4)]Gal(b1-4)Glc
Outline: as §1

[21] = target: Neu5Ac(a2-8)Neu5Ac(a2-8)Neu5Ac
Outline: as §1

[22] = target: Neu5Ac(a2-8)Neu5Ac(a2-8)Neu5Ac(a2-3)Gal(b1-4)Glc
Outline: as §1

[23] = target: Neu5Ac(a2-8)Neu5Ac(a2-8)Neu5Ac(a2-3)[Gal(b1-3)GalNAc(b1-4)]Gal(b1-4)Glc
Outline: as §1

[24] = target: Neu5Ac(a2-8)Neu5Ac(a2-8)Neu5Ac(a2-3)[GalNAc(b1-4)]Gal(b1-4)Glc
Outline: as §1

[25] = target: Neu5Ac(a2-8)Neu5Ac(a2-8)Neu5Ac(a2-8)Neu5Ac(a2-3)[GalNAc(b1-4)]Gal(b1-4)Glc
Outline: as §1

[26] = target: Neu5Ac(a2-8)Neu5Gc(a2-3)Gal(b1-4)GlcNAc
Outline: as §1

[27] = target: Neu5Ac(b2-6)Gal(b1-4)GlcNAc
Outline: as §1

Neu5Ac(b2-6)GalNAc = target: Neu5Ac(b2-6)GalNAc
Outline: as §1

[28] = target: Neu5Ac9Ac(a2-3)Gal(b1-3)GlcNAc
Outline: as §1

[29] = target: Neu5Ac9Ac(a2-3)Gal(b1-4)GlcNAc
Outline: as §1

[30] = target: Neu5Ac9Ac(a2-6)Gal(b1-4)GlcNAc
Outline: as §1

[31] = target: Neu5Gc(a2-3)Gal(b1-3)GlcNAc
Outline: as §1

[32] = target: Neu5Gc(a2-3)Gal(b1-3)[Fuc(a1-4)]GlcNAc
Outline: as §1

Neu5Gc(a2-3)Gal(b1-4)Glc = target: Neu5Gc(a2-3)Gal(b1-4)Glc
Outline: as §1

[33] = target: Neu5Gc(a2-3)Gal(b1-4)GlcNAc
Outline: as §1

[34] = target: Neu5Gc(a2-3)Gal(b1-4)GlcNAc(b1-3)Gal(b1-4)GlcNAc(b1-2)Man(a1-3)[Neu5Gc(a2-3)Gal(b1-4)GlcNAc(b1-3)Gal(b1-4)GlcNAc(b1-2)Man(a1-6)]Man(b1-4)GlcNAc(b1-4)GlcNAc
Outline: as §1

[35] = target: Neu5Gc(a2-3)Gal(b1-4)[Fuc(a1-3)]GlcNAc
Outline: as §1

[36] = target: Neu5Gc(a2-6)Gal(b1-4)GlcNAc
Outline: as §1

Neu5Gc(a2-6)GalNAc = target: Neu5Gc(a2-6)GalNAc
Outline: as §1

[37] = target: Neu5Gc(a2-8)Neu5Ac(a2-3)Gal(b1-4)GlcNAc
Outline: as §1

[38] = target: Neu5Gc(a2-8)Neu5Gc(a2-3)Gal(b1-4)GlcNAc
Outline: as §1

[39] = target: Neu5Gc(a2-8)Neu5Gc(a2-3)Gal(b1-4)GlcNAc(b1-3)Gal(b1-4)GlcNAc
Outline: as §1

[40] = target: Neu5Gc(a2-8)Neu5Gc(a2-6)Gal(b1-4)GlcNAc
Outline: as §1

[41] = target: Neu5Gc(b2-6)Gal(b1-4)GlcNAc
Outline: as §1

B1: Clec18C (Homo sapiens) (protein)
chain: MLHPETSPGRGHLLAVLLALLGTAWAEVWPPQLQEQAPMAGALNRKESFLLLSLHNRLRSWVQPPAADMRRLDWSDSLAQLAQARAALCGTPTPSLASGLWRTLQVGWNMQLLPAGLVSFVEVVSLWFAEGQRYSHAAGECARNATCTHYTQLVWATSSQLGCGRHLCSAGQAAIEAFVCAYSPRGNWEVNGKTIVPYKKGAWCSLCTASVSGCFKAWDHAGGLCEVPRNPCRMSCQNHGRLNISTCHCHCPPGYTGRYCQVRCSLQCVHGRLREEECSCVCDIGYGGAQCATKVHFPFHTCDLRIDGDCFMVSSEADTYYRARMKCQRKGGVLAQIKSQKVQDILAFYLGRLETTNEVIDSDFETRNFWIGLTYKTAKDSFRWATGEHQAFTSFAFGQPDNHGFGNCVELQASAAFNWNNQRCKTRNRYICQFAQEHISRWGPGS
glycan array binding signal (z-score) [1]: -0.565
glycan array binding signal (z-score) [2]: -0.383
glycan array binding signal (z-score) [3]: -0.392
glycan array binding signal (z-score) [4]: 0.641
glycan array binding signal (z-score) [5]: -0.245
glycan array binding signal (z-score) [6]: -0.474
glycan array binding signal (z-score) [7]: -0.506
glycan array binding signal (z-score) [8]: -0.464
glycan array binding signal (z-score) [9]: -0.511
glycan array binding signal (z-score) [10]: -0.289
glycan array binding signal (z-score) (Neu5Ac(a2-6)GalNAc): 5.42
glycan array binding signal (z-score) [11]: -0.567
glycan array binding signal (z-score) [12]: 0.738
glycan array binding signal (z-score) [13]: -0.459
glycan array binding signal (z-score) [14]: -0.581
glycan array binding signal (z-score) (Neu5Ac(a2-8)Neu5Ac): -0.454
glycan array binding signal (z-score) [15]: -0.598
glycan array binding signal (z-score) [16]: -0.323
glycan array binding signal (z-score) [17]: -0.582
glycan array binding signal (z-score) [18]: -0.498
glycan array binding signal (z-score) [19]: 0.17
glycan array binding signal (z-score) [20]: -0.481
glycan array binding signal (z-score) [21]: -0.559
glycan array binding signal (z-score) [22]: -0.499
glycan array binding signal (z-score) [23]: -0.24
glycan array binding signal (z-score) [24]: -0.493
glycan array binding signal (z-score) [25]: -0.363
glycan array binding signal (z-score) [26]: -0.583
glycan array binding signal (z-score) [27]: -0.339
glycan array binding signal (z-score) (Neu5Ac(b2-6)GalNAc): -0.343
glycan array binding signal (z-score) [28]: -0.566
glycan array binding signal (z-score) [29]: -0.565
glycan array binding signal (z-score) [30]: -0.499
glycan array binding signal (z-score) [31]: -0.606
glycan array binding signal (z-score) [32]: -0.448
glycan array binding signal (z-score) (Neu5Gc(a2-3)Gal(b1-4)Glc): -0.296
glycan array binding signal (z-score) [33]: -0.549
glycan array binding signal (z-score) [34]: -0.288
glycan array binding signal (z-score) [35]: 0.57
glycan array binding signal (z-score) [36]: -0.099
glycan array binding signal (z-score) (Neu5Gc(a2-6)GalNAc): -0.265
glycan array binding signal (z-score) [37]: 0.261
glycan array binding signal (z-score) [38]: -0.62
glycan array binding signal (z-score) [39]: -0.62
glycan array binding signal (z-score) [40]: 0.623
glycan array binding signal (z-score) [41]: -0.13
